Test results: the supplement of paper PMC8728848
The other results are listed elsewhere or left out.

Tests used:
Assay in all cases: glycan array binding signal (z-score within array); higher = stronger binding
Details in all cases: glycan notation: IUPAC condensed, linker removed
[1] = biological target: Neu5Ac(a2-3)Gal(b1-4)[Fuc(a1-3)]GlcNAc(b1-3)GalNAc
Summary of the method: (§1)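 Glycan array data came from 3228 arrays in the Consortium for Functional Glycomics database, and only arrays with an available protein sequence were kept. Glycan names were put into IUPAC-condensed notation, and columns mapping to the same glycan were averaged. The binding signal is a within-array Z-score, averaged across arrays of one protein sequence run at different concentrations or buffers and across linkers. A negative Z-score can be read as non-binding.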

[2] = biological target: Neu5Ac(a2-3)Gal(b1-4)[Fuc(a1-3)]GlcNAc(b1-6)[Gal(b1-3)]GalNAc
Summary of the method: as §1

[3] = biological target: Neu5Ac(a2-3)Gal(b1-4)[Fuc(a1-3)]GlcNAc(b1-6)[Neu5Ac(a2-3)Gal(b1-3)]GalNAc
Summary of the method: as §1

[4] = biological target: Neu5Ac(a2-3)Gal(b1-4)[Fuc(a1-3)]GlcNAc6S
Summary of the method: as §1

[5] = biological target: Neu5Ac(a2-3)Gal6S(b1-4)GlcNAc
Summary of the method: as §1

[6] = biological target: Neu5Ac(a2-3)Gal6S(b1-4)[Fuc(a1-3)]GlcNAc
Summary of the method: as §1

Neu5Ac(a2-3)GalNAc = biological target: Neu5Ac(a2-3)GalNAc
Summary of the method: as §1

[7] = biological target: Neu5Ac(a2-3)GalNAc(b1-4)GlcNAc
Summary of the method: as §1

[8] = biological target: Neu5Ac(a2-3)[GalNAc(b1-4)]Gal(b1-4)Glc
Summary of the method: as §1

[9] = biological target: Neu5Ac(a2-3)[GalNAc(b1-4)]Gal(b1-4)GlcNAc
Summary of the method: as §1

[10] = biological target: Neu5Ac(a2-3)[GalNAc(b1-4)]Gal(b1-4)GlcNAc(b1-3)GalNAc
Summary of the method: as §1

[11] = biological target: Neu5Ac(a2-3)[Neu5Ac(a2-6)]GalNAc
Summary of the method: as §1

Neu5Ac(a2-6)Gal = biological target: Neu5Ac(a2-6)Gal
Summary of the method: as §1

[12] = biological target: Neu5Ac(a2-6)Gal(b1-3)GlcNAc(b1-3)[Gal(b1-4)GlcNAc(b1-6)]Gal(b1-4)Glc
Summary of the method: as §1

Neu5Ac(a2-6)Gal(b1-4)Glc = biological target: Neu5Ac(a2-6)Gal(b1-4)Glc
Summary of the method: as §1

[13] = biological target: Neu5Ac(a2-6)Gal(b1-4)GlcNAc
Summary of the method: as §1

[14] = biological target: Neu5Ac(a2-6)Gal(b1-4)GlcNAc(b1-2)Man
Summary of the method: as §1

[15] = biological target: Neu5Ac(a2-6)Gal(b1-4)GlcNAc(b1-2)Man(a1-3)Man(b1-4)GlcNAc(b1-4)GlcNAc
Summary of the method: as §1

[16] = biological target: Neu5Ac(a2-6)Gal(b1-4)GlcNAc(b1-2)Man(a1-3)[Gal(b1-4)GlcNAc(b1-2)Man(a1-6)]Man(b1-4)GlcNAc(b1-4)GlcNAc
Summary of the method: as §1

[17] = biological target: Neu5Ac(a2-6)Gal(b1-4)GlcNAc(b1-2)Man(a1-3)[GlcNAc(b1-2)Man(a1-6)]Man(b1-4)GlcNAc(b1-4)GlcNAc
Summary of the method: as §1

[18] = biological target: Neu5Ac(a2-6)Gal(b1-4)GlcNAc(b1-2)Man(a1-3)[GlcNAc(b1-4)][Neu5Ac(a2-6)Gal(b1-4)GlcNAc(b1-2)Man(a1-6)]Man(b1-4)GlcNAc(b1-4)GlcNAc
Summary of the method: as §1

[19] = biological target: Neu5Ac(a2-6)Gal(b1-4)GlcNAc(b1-2)Man(a1-3)[Man(a1-6)]Man(b1-4)GlcNAc(b1-4)GlcNAc
Summary of the method: as §1

[20] = biological target: Neu5Ac(a2-6)Gal(b1-4)GlcNAc(b1-2)Man(a1-3)[Neu5Ac(a2-3)Gal(b1-4)GlcNAc(b1-2)Man(a1-6)]Man(b1-4)GlcNAc(b1-4)GlcNAc
Summary of the method: as §1

[21] = biological target: Neu5Ac(a2-6)Gal(b1-4)GlcNAc(b1-2)Man(a1-3)[Neu5Ac(a2-6)Gal(b1-4)GlcNAc(b1-2)Man(a1-6)]Man(b1-4)GlcNAc(b1-4)GlcNAc
Summary of the method: as §1

[22] = biological target: Neu5Ac(a2-6)Gal(b1-4)GlcNAc(b1-2)Man(a1-3)[Neu5Ac(a2-6)Gal(b1-4)GlcNAc(b1-2)Man(a1-6)]Man(b1-4)GlcNAc(b1-4)[Fuc(a1-6)]GlcNAc
Summary of the method: as §1

[23] = biological target: Neu5Ac(a2-6)Gal(b1-4)GlcNAc(b1-2)Man(a1-6)Man(b1-4)GlcNAc(b1-4)GlcNAc
Summary of the method: as §1

[24] = biological target: Neu5Ac(a2-6)Gal(b1-4)GlcNAc(b1-2)Man(a1-6)[Gal(b1-4)GlcNAc(b1-2)Man(a1-3)]Man(b1-4)GlcNAc(b1-4)GlcNAc
Summary of the method: as §1

[25] = biological target: Neu5Ac(a2-6)Gal(b1-4)GlcNAc(b1-2)Man(a1-6)[GlcNAc(b1-2)Man(a1-3)]Man(b1-4)GlcNAc(b1-4)GlcNAc
Summary of the method: as §1

[26] = biological target: Neu5Ac(a2-6)Gal(b1-4)GlcNAc(b1-2)Man(a1-6)[Man(a1-3)]Man(b1-4)GlcNAc(b1-4)GlcNAc
Summary of the method: as §1

[27] = biological target: Neu5Ac(a2-6)Gal(b1-4)GlcNAc(b1-2)[Neu5Ac(a2-6)Gal(b1-4)GlcNAc(b1-4)]Man(a1-3)[GlcNAc(b1-4)][Neu5Ac(a2-6)Gal(b1-4)GlcNAc(b1-2)[Neu5Ac(a2-6)Gal(b1-4)GlcNAc(b1-6)]Man(a1-6)]Man(b1-4)GlcNAc(b1-4)GlcNAc
Summary of the method: as §1

[28] = biological target: Neu5Ac(a2-6)Gal(b1-4)GlcNAc(b1-2)[Neu5Ac(a2-6)Gal(b1-4)GlcNAc(b1-4)]Man(a1-3)[GlcNAc(b1-4)][Neu5Ac(a2-6)Gal(b1-4)GlcNAc(b1-4)Man(a1-6)]Man(b1-4)GlcNAc(b1-4)GlcNAc
Summary of the method: as §1

[29] = biological target: Neu5Ac(a2-6)Gal(b1-4)GlcNAc(b1-2)[Neu5Ac(a2-6)Gal(b1-4)GlcNAc(b1-6)]Man(a1-6)[Neu5Ac(a2-6)Gal(b1-4)GlcNAc(b1-2)Man(a1-3)][GlcNAc(b1-4)]Man(b1-4)GlcNAc(b1-4)GlcNAc
Summary of the method: as §1

[30] = biological target: Neu5Ac(a2-6)Gal(b1-4)GlcNAc(b1-3)Gal(b1-3)GlcNAc
Summary of the method: as §1

[31] = biological target: Neu5Ac(a2-6)Gal(b1-4)GlcNAc(b1-3)Gal(b1-4)GlcNAc
Summary of the method: as §1

[32] = biological target: Neu5Ac(a2-6)Gal(b1-4)GlcNAc(b1-3)Gal(b1-4)GlcNAc(b1-2)Man(a1-3)[Neu5Ac(a2-6)Gal(b1-4)GlcNAc(b1-3)Gal(b1-4)GlcNAc(b1-2)Man(a1-6)]GalNAc
Summary of the method: as §1

[33] = biological target: Neu5Ac(a2-6)Gal(b1-4)GlcNAc(b1-3)Gal(b1-4)GlcNAc(b1-3)Gal(b1-4)GlcNAc
Summary of the method: as §1

[34] = biological target: Neu5Ac(a2-6)Gal(b1-4)GlcNAc(b1-3)Gal(b1-4)GlcNAc(b1-3)Gal(b1-4)GlcNAc(b1-2)Man(a1-3)[Neu5Ac(a2-6)Gal(b1-4)GlcNAc(b1-3)Gal(b1-4)GlcNAc(b1-3)Gal(b1-4)GlcNAc(b1-2)Man(a1-6)]GalNAc
Summary of the method: as §1

[35] = biological target: Neu5Ac(a2-6)Gal(b1-4)GlcNAc(b1-3)Gal(b1-4)GlcNAc(b1-3)GalNAc
Summary of the method: as §1

[36] = biological target: Neu5Ac(a2-6)Gal(b1-4)GlcNAc(b1-3)Gal(b1-4)GlcNAc(b1-3)[Neu5Ac(a2-6)Gal(b1-4)GlcNAc(b1-3)Gal(b1-4)GlcNAc(b1-6)]GalNAc
Summary of the method: as §1

[37] = biological target: Neu5Ac(a2-6)Gal(b1-4)GlcNAc(b1-3)Gal(b1-4)GlcNAc(b1-6)[Gal(b1-3)]GalNAc
Summary of the method: as §1

[38] = biological target: Neu5Ac(a2-6)Gal(b1-4)GlcNAc(b1-3)Gal(b1-4)[Fuc(a1-3)]GlcNAc(b1-3)Gal(b1-4)[Fuc(a1-3)]GlcNAc
Summary of the method: as §1

[39] = biological target: Neu5Ac(a2-6)Gal(b1-4)GlcNAc(b1-3)GalNAc
Summary of the method: as §1

[40] = biological target: Neu5Ac(a2-6)Gal(b1-4)GlcNAc(b1-3)[Neu5Ac(a2-6)Gal(b1-4)GlcNAc(b1-6)]GalNAc
Summary of the method: as §1

[41] = biological target: Neu5Ac(a2-6)Gal(b1-4)GlcNAc(b1-6)GalNAc
Summary of the method: as §1

[42] = biological target: Neu5Ac(a2-6)Gal(b1-4)GlcNAc(b1-6)[Gal(b1-3)GlcNAc(b1-3)]Gal(b1-4)Glc
Summary of the method: as §1

B1: UDA (Urtica dioica), P11218 (protein)
chain: MMMRFLSAVVIMSSAMAVGLVSAQRCGSQGGGGTCPALWCCSIWGWCGDSEPYCGRTCENKCWSGERSDHRCGAAVGNPPCGQDRCCSVHGWCGGGNDYCSGSKCQYRCSSSVRGPRVALSGNSTANSIGNVVVTEPLFDQMFSHRKDCPSQGFYSYHSFLVAAESFPAFGTIGDVATRKREVAAFLAHISQATSGERSDVENPHAWGLCHINTTTVTENDFCTSSDWPCAAGKKYSPRGPIQLTHNFNYGLAGQAIGEDLIQNPDLVEKDPIISFKTALWFWMSQHDNKPSCHDIVLNANSAANRIPNKGVIGNIISRAFGHDDFAVRSSSIGFYKRYCDMLGVSYGHDLKYWFDNTPSSEFQRIQMRVAA
- glycan array binding signal (z-score) [1]: -0.165
- glycan array binding signal (z-score) [2]: -0.159
- glycan array binding signal (z-score) [3]: -0.168
- glycan array binding signal (z-score) [4]: -0.188
- glycan array binding signal (z-score) [5]: -0.19
- glycan array binding signal (z-score) [6]: -0.175
- glycan array binding signal (z-score) (Neu5Ac(a2-3)GalNAc): -0.194
- glycan array binding signal (z-score) [7]: -0.07
- glycan array binding signal (z-score) [8]: -0.189
- glycan array binding signal (z-score) [9]: -0.087
- glycan array binding signal (z-score) [10]: -0.146
- glycan array binding signal (z-score) [11]: -0.194
- glycan array binding signal (z-score) (Neu5Ac(a2-6)Gal): -0.189
- glycan array binding signal (z-score) [12]: -0.145
- glycan array binding signal (z-score) (Neu5Ac(a2-6)Gal(b1-4)Glc): -0.191
- glycan array binding signal (z-score) [13]: -0.193
- glycan array binding signal (z-score) [14]: -0.182
- glycan array binding signal (z-score) [15]: 1.69
- glycan array binding signal (z-score) [16]: -0.176
- glycan array binding signal (z-score) [17]: -0.126
- glycan array binding signal (z-score) [18]: -0.179
- glycan array binding signal (z-score) [19]: 4.09
- glycan array binding signal (z-score) [20]: -0.173
- glycan array binding signal (z-score) [21]: -0.162
- glycan array binding signal (z-score) [22]: -0.169
- glycan array binding signal (z-score) [23]: -0.176
- glycan array binding signal (z-score) [24]: -0.178
- glycan array binding signal (z-score) [25]: -0.172
- glycan array binding signal (z-score) [26]: -0.174
- glycan array binding signal (z-score) [27]: -0.175
- glycan array binding signal (z-score) [28]: -0.181
- glycan array binding signal (z-score) [29]: -0.178
- glycan array binding signal (z-score) [30]: -0.183
- glycan array binding signal (z-score) [31]: -0.141
- glycan array binding signal (z-score) [32]: -0.152
- glycan array binding signal (z-score) [33]: -0.081
- glycan array binding signal (z-score) [34]: -0.106
- glycan array binding signal (z-score) [35]: -0.183
- glycan array binding signal (z-score) [36]: -0.099
- glycan array binding signal (z-score) [37]: -0.172
- glycan array binding signal (z-score) [38]: -0.185
- glycan array binding signal (z-score) [39]: -0.178
- glycan array binding signal (z-score) [40]: -0.179
- glycan array binding signal (z-score) [41]: -0.173
- glycan array binding signal (z-score) [42]: -0.18
